# Assay results reported in article PMC4336329 (PLoS ONE, 2015).
# The campaign covered roughly 310,000 compounds. About 2,200 (0.71%) showed an effect of 50% or more. Effects have a minus sign here. The list shows a part of the results.
# Molecular target: human ether-à-go-go-related gene (hERG) potassium channel (human, UniProt Q12809)
# Assay: primary screen, population patch clamp on CHO cells stably expressing hERG
# Chain of human ether-à-go-go-related gene (hERG) potassium channel (Q12809 whole entry, looked up): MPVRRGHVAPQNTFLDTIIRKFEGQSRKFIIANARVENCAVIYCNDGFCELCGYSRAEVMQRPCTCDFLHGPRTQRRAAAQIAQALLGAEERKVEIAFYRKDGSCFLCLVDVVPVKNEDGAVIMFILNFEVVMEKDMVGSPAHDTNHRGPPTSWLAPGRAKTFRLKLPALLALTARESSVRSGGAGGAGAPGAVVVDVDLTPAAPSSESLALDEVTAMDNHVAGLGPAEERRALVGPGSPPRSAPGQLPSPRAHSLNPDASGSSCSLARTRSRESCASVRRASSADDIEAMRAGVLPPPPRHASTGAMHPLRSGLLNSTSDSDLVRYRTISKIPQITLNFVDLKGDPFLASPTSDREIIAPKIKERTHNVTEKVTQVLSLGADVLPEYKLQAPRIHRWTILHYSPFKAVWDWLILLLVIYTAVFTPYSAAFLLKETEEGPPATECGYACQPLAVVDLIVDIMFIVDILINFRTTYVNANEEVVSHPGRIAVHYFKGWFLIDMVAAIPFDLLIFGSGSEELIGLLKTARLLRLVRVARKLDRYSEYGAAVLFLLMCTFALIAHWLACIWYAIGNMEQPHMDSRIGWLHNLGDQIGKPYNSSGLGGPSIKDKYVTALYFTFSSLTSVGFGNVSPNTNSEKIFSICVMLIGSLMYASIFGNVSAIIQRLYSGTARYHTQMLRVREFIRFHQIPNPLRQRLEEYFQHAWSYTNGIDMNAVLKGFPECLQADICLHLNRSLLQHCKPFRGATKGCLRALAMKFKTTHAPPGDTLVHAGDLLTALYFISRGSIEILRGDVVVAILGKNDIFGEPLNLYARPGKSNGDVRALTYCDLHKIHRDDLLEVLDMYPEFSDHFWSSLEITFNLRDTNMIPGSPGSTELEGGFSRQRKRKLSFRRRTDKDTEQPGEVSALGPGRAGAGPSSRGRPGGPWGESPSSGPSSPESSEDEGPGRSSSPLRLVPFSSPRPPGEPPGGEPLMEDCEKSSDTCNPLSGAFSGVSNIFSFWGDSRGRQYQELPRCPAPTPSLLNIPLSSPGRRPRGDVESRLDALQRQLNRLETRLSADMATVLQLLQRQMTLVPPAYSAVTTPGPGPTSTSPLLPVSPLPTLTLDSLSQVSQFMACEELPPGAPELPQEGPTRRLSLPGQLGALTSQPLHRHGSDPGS
row,SMILES,"hERG current change (%, negative = inhibition) at 1uM"
1,CC1Cc2cc(/C(O)=C3/C(=O)C(=O)N(CCN4CCOCC4)C3c3ccc(N(C)C)cc3)ccc2O1 (centres unmarked),12.3%
2,Cc1csc(SCC(=O)c2c(N)n(CC(C)C)c(=O)n(C)c2=O)n1,2.81%
3,COc1ccc(N(Cc2cc3ccccc3[nH]c2=O)C(=O)C2CCCO2)cc1 (centres unmarked),11.9%
4,COc1ccc(NC(=S)NCCCN2CCCC2)cc1Cl,17.9%
5,Cc1cc(S(=O)(=O)NC2CCCCC2)c(C)s1,-7.81%
6,CCc1noc(C)c1C(=O)Nc1nc(-c2ccc(OC)cc2OC)cs1,11.6%
7,Cc1cccc(C(=O)N2CCCCCC2)c1[N+](=O)[O-],8.31%
8,CCOc1ccc(Nc2nc(N3CCCC3)nc(N3CCN(c4ccc(OC)cc4)CC3)n2)cc1,3.56%
9,Cc1ccc(S(=O)(=O)N(C)Cc2ccccc2)cc1C(=O)N1CCCCC1,3.96%
10,Cc1c(Cl)cnc(NC(=O)COC(=O)c2cc3c(s2)CCC(C)C3)c1Cl (centres unmarked),16.3%
11,CCCOC(=O)c1ccc(Oc2coc3c(CN(CC)CC)c(O)ccc3c2=O)cc1,3.04%
12,CC(C)(C)NC(=O)COc1ccc(CNCCc2ccccc2)cc1.Cl,-1.02%
13,CCOCCCNC(=O)C1CCN(Cc2ccc(OCc3ccccc3)c(OC)c2)CC1.O=C(O)C(=O)O,-4.58%
14,C=CCNc1nc2ccccc2nc1NS(=O)(=O)c1ccc(OC)cc1,4.8%
15,COc1cccc(CNC(=O)C2CCCN(S(=O)(=O)c3c(C)[nH]c(=O)[nH]c3=O)C2)c1 (centres unmarked),4.35%
16,Cc1noc(C)c1C(=O)OCC(=O)N(C)C1(C#N)CCCCC1,-2.93%
17,Cc1cnc(C(=O)OCC(=O)N2c3ccccc3CC2C)cn1 (centres unmarked),10.6%
18,Cn1c(CNC(=O)c2ccc3c(c2)OCO3)nnc1SCC(=O)Nc1ccccc1Cl,7.29%
19,COC(=O)CNC(=O)C(Cc1c[nH]c2ccccc12)NC(=O)Oc1ccccc1 (centres unmarked),-1.05%
20,O=C1NC(c2cccc([N+](=O)[O-])c2)=CCN1c1ccccc1O,7.97%
21,CN1C2C=C3C(C#N)=C(N)C(C#N)(C#N)[C@@H](c4ccsc4)[C@@H]3C1CC2 (some centres unmarked),11.8%
22,Cc1ccc(C(=O)COC(=O)COc2ccccc2[N+](=O)[O-])s1,17.1%

row,SMILES,"hERG current change (%, negative = inhibition) at 1uM"
1,CC(C)(C)[C@@H]1C=C(C(=O)NC2CC2)O[C@H](OCc2ccc(CO)cc2)C1,8.97%
2,O=C(CSc1nccn1Cc1ccccc1)NC1CCCC1,14.8%
3,COc1ccc(C2c3c(oc4ccc(Cl)cc4c3=O)C(=O)N2CCN2CCOCC2)cc1 (centres unmarked),-24%
4,Cc1cc(N2CCN(Cc3ccccc3)CC2)n2nc(C)c(-c3ccccc3)c2n1,0.371%
5,Cc1cc(C)n(CC(=O)N/N=C/c2ccccn2)n1,16.1%
6,CC(=O)c1ccc(N=Nc2c(C)[nH][nH]c2=O)cc1,14.1%
7,CCC(NC(=O)NC1CCCCC1)c1ccccc1 (centres unmarked),6.61%
8,O=C(O)C1CCCCC1C(=O)NCCc1ccc(Cl)cc1 (centres unmarked),14.9%
9,Cc1ccc2sc(NC(=O)C3CC3)nc2c1C,8.01%
10,CCOc1ncccc1C(=O)OCC(=O)N(CC(C)C)c1c(N)n(Cc2ccccc2)c(=O)[nH]c1=O,16.1%
11,Cc1ccc(SCCNS(=O)(=O)c2ccc3c(c2)OCCO3)cc1,11.7%
12,O=C(N/N=C/c1cccnc1)c1ccc(NC(=O)c2ccccc2Cl)cc1,9.37%
13,COCCCNC(=S)N(CCCN(C)C)Cc1cc2cc3c(cc2[nH]c1=O)OCCO3,11.2%
14,COc1ccc(NC(=O)CSc2nnc(CN3CCOCC3)n2C)cc1Cl,0.376%
15,O=C(NCc1ccncc1)Nc1ccccc1,14.7%
16,CN(C)c1ccc(S(=O)(=O)N(C)C)cc1NC(=O)Cc1cccc2ccccc12,3.98%
17,CCn1c(C)nc2cc(C(=O)NNC(=O)Nc3cccc(Cl)c3)ccc21,17.4%
18,Cn1c(NC2CCCCC2)cc(=O)n(C)c1=O,8.89%
19,CC(=O)c1c(C)[nH]c(C(=O)Nc2cccc(C#N)c2)c1C,10.3%
20,COc1ccc(NC(=O)c2ccc(COc3ccccc3)o2)cc1,6.3%
21,CCOC(=O)C(=NC1CCS(=O)(=O)C1)NNc1cc(Cl)ccc1Cl (centres unmarked),3.27%
22,Cc1ccc(OCC(=O)OC2CCS(=O)(=O)C2)cc1 (centres unmarked),3.88%
